# Experimental data: publication PMC12040169 (PLOS Biology, 2025)
# This is one part of the list.
# System: T1, C. trachomatis L2/434/Bu expressing GFP (CTL2-GFP)
# T1 construct: L2/434/Bu GFP intracellular growth in HeLa cells
# Parameters: species or system HeLa; C. trachomatis total inclusion area by high-content imaging, normalised to DMSO
# Conditions: total inclusion area; 28.5 h, 10 µM; inhibitor
# How it was run: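 Post-fluorescence-read fixation, DNA staining with Hoechst and high-content imaging; GFP inclusion area and number per well, and nuclei counts, used as proxies for bacterial growth and host viability.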
row,SMILES,% of control remaining
1,Cn1cc(C(=O)NC2CCN(c3ccc(C#N)cc3F)CC2)cn1 [CBK304939],69.0848
2,COc1ccc(Br)c(C(CO)N(C)C(=O)Cc2cnccc2C)c1 (stereo not shown) [CBK306267],56.0612
3,N#Cc1cnn(-c2ccc(Cl)cc2Cl)c1N [CBK086125],112.84
4,Cc1ccc(-c2cncc(N3CCCC3CO)n2)cc1C (stereo not shown) [CBK065945],87.2649
5,CC(C)Cn1cncc1CNS(=O)(=O)c1cccc(C(=O)N2CCC2)c1 [CBK307068],50.441
6,Cc1nccn1CCC(=O)N1CCc2[nH]c3ccccc3c2C1 [CBK281882],87.6256
7,O=P(O)(COc1ccccc1)COc1ccccc1 [CBK261620],83.426
8,CCCCc1c(Cl)nc(C#N)c2c1CCCC2 [CBK020252],32.3605
9,CC(=O)N1CCCCC[C@@H]2[C@@H]1C[C@@H](Cc1ccccc1)N2C(=O)c1ccccc1 [CBK285576],85.177
10,N#Cc1cccc(C(=O)NCCc2cn3c(n2)CCCC3)c1 [CBK305046],52.3802
11,COc1ccc(N(C(C)C(=O)N/N=C2\C(=O)Nc3ccccc32)S(C)(=O)=O)cc1 (stereo not shown) [CBK262408],107.955
12,O=C(C1CC1)N1CCC(Cn2nc(-c3ccccc3)ccc2=O)CC1 [CBK284115],78.322
13,O=S1(=O)CC(NCc2ccccc2)C(Nc2ccccc2)C1 (stereo not shown) [CBK265797],117.231
14,O=c1cc2nc(-c3ccccc3F)[nH]c(=S)n2[nH]1 [CBK288402],45.7924
15,COc1ccc(Nc2nc(-c3cccc(N)c3)cnc2N)cc1 [CBK063585],131.574
16,COc1cc(CNc2cc(-c3ccsc3)ncn2)cc(OC)c1OC [CBK037794],124.807
17,CSc1nsc(SCC(=O)Nc2cccc(NC(C)=O)c2)n1 [CBK269833],89.2409
18,COC(=O)c1ccsc1NS(=O)(=O)c1cc(Cl)sc1Cl [CBK039062],83.4852
19,CCCc1cc(-c2c(Cl)cccc2Cl)[nH]n1 [CBK107818],85.8434
20,CC(C)c1nccn1CCC(=O)N1CCC(c2ccncc2)CC1 [CBK283512],58.0663
21,O=C(NCc1ccc2c(c1)OCO2)c1ccc2c(c1)C(=O)N(Cc1cccnc1)C2=O [CBK267824],80.4532
22,CC(C)(CO)CNc1nc(-c2ccc3c(c2)OCO3)cnc1N [CBK063459],136.356
23,Cc1c(C(=O)N2CC(n3cc(C(C)(C)O)nn3)C2)sc2cccc(F)c12 [CBK306398],13.043
24,Nc1cccc(-c2nccnc2NCc2cccs2)c1 [CBK037537],101.092
25,Cn1cc(CCO)c2ccccc21 [CBK081087],104.578
26,CN1CCC(N2CCN(C(=O)c3ccc(-c4ccc(S(C)(=O)=O)cc4)nc3)CC2)CC1 [CBK158862],100.52
27,COc1ccc(S(=O)(=O)NCCNC(=O)c2ccc(-c3cccc(Cl)c3Cl)nc2NCc2cccnc2)cc1 [CBK076436],68.9542

row,SMILES,% of control remaining
1,COc1ccc(C(=O)C2=C(O)C(=O)N(CCN3CCOCC3)C2c2ccc(Cl)cc2)cc1 (stereo not shown) [CBK264718],121.215
2,Cn1c(=O)n(CC(=O)N2CCCc3ccccc32)c2cccnc21 [CBK283790],81.3059
3,Cc1nc(CCCn2cnc3ncccc3c2=O)sc1C [CBK306953],92.0665
4,COc1cncc(C(NC(=O)c2ccc3c(c2)CCC3)[C@H]2C[C@H](O)C2)c1 (stereo partly shown) [CBK307646],53.7694
5,CC(CCN1CCN(C)CC1)c1ccccc1 (stereo not shown) [CBK261881],104.922
6,CCOC(=O)CN1CCN(C(=O)Nc2ccccc2OC(F)(F)F)CC1 [CBK043656],90.8665
7,O=C(O)COCCn1cc(-c2ccc(Cl)cc2)cn1 [CBK021914],43.7207
8,CN(C(=O)C1CC1)c1nc2c(s1)CCc1c-2cnn1C [CBK281927],76.7944
9,Cn1c(=O)[nH]c(=O)c2c1nc(SCCN1CCOCC1)n2CCCc1ccccc1 [CBK269234],114.078
10,O=C1COc2ccccc2C/C=C/CC2(CCN(C(=O)c3n[nH]c4c3CCC4)CC2)CN1 [CBK292019],93.6025
11,COc1ccc(S(=O)(=O)NC(C)C(=O)Nc2cc(Cl)ccc2OC)cc1 (stereo not shown) [CBK269479],67.0599
12,O=C(c1cncnc1)N1CCC(Cn2cncn2)(C2CCCCC2)CC1 [CBK136823],99.699
13,Cc1[nH]c(=O)c(C#N)cc1C(=O)N(C)Cc1cc(-c2ccncc2)no1 [CBK306859],65.2931
14,Cc1cc(COc2nccnc2N2CCN(Cc3ccc(C(C)C)cc3)CC2)no1 [CBK084186],113.924
15,CCOC(=O)c1ccc(NC(=S)NCCN(CC)CC)cc1 [CBK018358],15.5937
16,CC(C)Cc1noc(CN2CCC(C(=O)NCc3ccco3)CC2)n1 [CBK305995],38.2224
17,COc1cccc(CNC23CC4CC(CC(C4)C2)C3)c1OCc1ccccc1 [CBK268873C],75.097
18,Cc1ccc(Cc2cnc(NC(=O)C3CCOCC3)s2)cc1F [CBK306130],11.7289
19,O=C(NCCc1cccs1)Nc1cccc(SC(F)(F)F)c1 [CBK044999],95.7801
20,Cc1ccc(S(=O)(=O)Cc2ccc(C(=O)N3CCN(Cc4ccccc4)CC3)cc2)cc1 [CBK269588],88.9745
21,O=C(Nc1cc2nn(-c3ccccc3)nc2cc1Cl)c1ccc(-c2cccc([N+](=O)[O-])c2)o1 [CBK266271],142.885
22,Cc1ccnc(SCC(=O)N2CCc3ccccc3C2)n1 [CBK288218],86.7051
23,COc1cccc(COc2cncc(Cl)n2)c1OC [CBK176057],57.8556
24,CCOC(=O)c1ccc(-c2ccc(/C=C/c3nn4cnnc4c(O)c3[N+](=O)[O-])o2)cc1 [CBK268409],115.88
25,Cc1cc(CN2CCC(C(=O)c3ccc(F)cc3)CC2)no1 [CBK149121],100.506
26,O=C1C2CCCCC2C(=O)N1c1ccc(Oc2ccc(Br)cc2)cc1 (stereo not shown) [CBK263531],79.7711
27,CC(C)[C@@H](CO)Nc1cc(Cl)nc2ccnn12 [CBK037242],139.637

row,SMILES,% of control remaining
1,CC1(C)CC(=O)C=C(C(=O)NCc2cccs2)O1 [CBK153292],105.69
2,Cc1nn(C)cc1C(=O)O[C@H]1C[C@@H](c2ccc(F)cc2)N(C)C1=O [CBK283615],55.2516
3,N[C@H]1CC[C@H](N(CCc2ccccc2)C(=O)N[C@@H]2C[C@H]2c2ccccc2)CC1 [CBK000474C],56.9302
4,O=C(c1cnn(C(=O)c2ccc3c(=O)n4c(nc3c2)CCC4)c1)c1ccccc1O [CBK295145],99.9432
5,O=C(COc1ccccc1Cl)NC(=S)Nc1cccc(C(=O)O)c1 [CBK265662],111.076
6,O=C(Nc1ccc(S(=O)(=O)NCCc2ccccc2)cc1)c1ccc2c(c1)OCO2 [CBK265591],82.2807
7,COc1ccc2[nH]cc(CC(=O)NCc3ccc(-c4csnn4)cc3)c2c1 [CBK149313],89.8742
8,CCN(CC)C(=O)CCn1c(-c2ccc(C)nc2)cc2cccnc21 [CBK282150],96.6135
9,COc1ccc(Br)cc1C(=O)NCC1(c2ccccc2)CCOCC1 [CBK067051],81.9957
10,COc1cccc(CN2C(=O)COc3ccc(C(=O)c4cccs4)cc32)c1 [CBK286412],82.4171
11,CS(=O)(=O)c1ccc(NC(=S)N2CCN(c3ccc(F)cc3)CC2)cc1 [CBK300507],91.8967
12,Cc1ccc(C)c(NC(=O)N2CCC3(CCc4nccc(C)c4C3=O)CC2)c1 [CBK059554],54.5983
13,C=CCn1c(SCC(=O)Nc2ccc(C(=O)OC)cc2)nnc1-c1ccc(Br)cc1 [CBK101797],94.0586
14,COc1ccc(OCCNC(=O)c2cc(Br)cnc2N(C)C(C)=O)cc1 [CBK076467],83.9795
15,CC(C)n1nccc1C(=O)N1CCCC(c2cc3cccnc3[nH]2)C1 (stereo not shown) [CBK284930],73.4687
16,O=[N+]([O-])c1ccc(O)c(/C=N/c2ccc3cc4ccc(/N=C/c5cc([N+](=O)[O-])ccc5O)cc4nc3c2)c1 [CBK261557],56.4278
17,CN(C)C(c1ccc2c(c1)OCO2)c1nnnn1C1CCCCC1 (stereo not shown) [CBK020620],97.2666
18,COc1ccc2c(c1)C1(CC(=O)N(CC(=O)N(C)C)C1=O)C(=O)N2Cc1ccc2ccccc2n1 (stereo not shown) [CBK075923],100.073
19,O=c1[nH]c2ncc(-c3ccc4c(c3)OCO4)nc2n1C1CC1 [CBK064922],136.193
20,COCCOC(=O)C1=C(C)N(c2ccc(C(=O)O)cc2)C(=O)NC1c1ccccc1Cl (stereo not shown) [CBK296986],87.0303
21,O=[N+]([O-])c1ccc2c(c1)C(N1CCOCC1)/C(=C/COc1ccc3ccccc3c1Br)O2 (stereo not shown) [CBK262738],96.5809
22,c1cnn(C2CCCN(Cc3ccc(Oc4cnccn4)cc3)C2)c1 (stereo not shown) [CBK304043],85.5437
23,O=C1C2C=NNC2C(=O)N1c1ccccc1 (stereo not shown) [CBK022326],84.5319
24,Cc1ccc2[nH]c(SCC(=O)Nc3cccc(NC(=O)C45CC6CC(CC(C6)C4)C5)c3)nc2c1 [CBK265679],89.4917
25,Cc1ccc(N2C(=O)c3ccc(C(=O)OCc4ccc([N+](=O)[O-])cc4)cc3C2=O)cc1Cl [CBK265730],85.1675
